Sequences and labels used below:
B1: CPEB3 Ribozyme (parent)
chain: UAACAGGGGGCCACAGCAGAAGCGUUCACGUCGCAGCCCCUGUCAGAUUCUGGUGAAUCUGCGAAUUCUGCUGUAUAUCUC

Read counts are not given, so values of variants with three or more changes are uncertain.

In the data set the parent is B1. The data set can be described thus: self-cleavage, relative activity (ratio to wild type); higher = more cleavage; in vitro, sequencing. An outline of the steps: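 Barcoded CPEB3 ribozyme mutants, produced by rounds of error-prone PCR, self-cleaved while being transcribed with T7 RNA polymerase for 5 hours at 37°C and during a subsequent 15 min DNase I step before EDTA was added. Sequencing of template-switched cDNA on Illumina gave cleaved and total reads, and DNA sequencing assigned barcodes to variants. Each variant's relative activity is its cleaved/total read fraction divided by the unmutated ribozyme's fraction, averaged across three batches. A variant needed a minimum of 5 reads.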
Consider UGACAGGGGGCCACAGCAGAAGCGUUCACGUCGCAGCCCCUGUCAGAUUCUGGUGAAUCUGCGAUUUCAGCAGUAUAUCUC [A2G A65U U69A U72A], for which the self-cleavage came to 0.16.
Then UGACAGGGGGCCACAGCAGAAGCGUUCACGUCGCAGCCCCUGUCGGAUUUUGGUGUAUCUGCGAAUUCUGCUGUAUAUCUC [A2G A45G C50U A56U], with 0.31.
As for UGACAGGGGGUCACAGCAGGAGCGUUCACGUCGCAGCCCCUGUCAGAUUCUGGUGGACCUGCGAAUUCUGCUGUAUAUCUC [A2G C11U A20G A56G U58C], the figure is 0.35.
UGACAGGGGGCUACAGCAGAAGCGUUCACGUCGCAGCCCCCGUCAGAUUCUGGUGAAUCUGCGAAUUCUGCUGUAUAUCUC [A2G C12U U41C]: the self-cleavage came to 1.17.
As for UGACAGGGGGCCACAGCAGAAGCGUUCACGUCGCAGCCCCUGUCAGAUUCUGGUGUAUCUGCGGAUUCUGCUGUAUAUCCC [A2G A56U A64G U80C], the figure is 0.22; as for UGACAGGGGGCCACAGCAGAAGCGUUCACGUCGCAGCCCCUGUCAGGUUCUGGUGAAUCUGCGAAUUCUGCUGUAUAUCCC [A2G A47G U80C], 0.62; as for UGACAGGGGGCGACAGCGGAAGCGUUCACGUCGCAGCCCCUGUCAGAUUCAGGUGAAUCCGCGAAUUCUGCAGUAUAUCUC [A2G C12G A18G U51A U60C U72A], 0.04.
As to UGACAGGGGGACGCAGCAGAAGCGUUCACGUCGCAGCCCCUGUCGGAUUCCGGUGAAUCUGCGAAUUCUGCUGUAUAUCUC [A2G C11A A13G A45G U51C], the self-cleavage was 0.08.
Then UGACAGGGGGCUACAGCAGAAGCGUACAGGUCGCUGCCCCUGUCAGAUUCUGGCGAACCUGCGAAUUCUGCUGUAUAUCUC [A2G C12U U26A C29G A35U U54C U58C], with 0.23; and UGACAGGGGGCCACAGCAGAAGCGUUCACGUCGCGGCCCCUGCCAGAUUCUGGUUAAUCUGCGAACUCUGCAGUAUAUCUU [A2G A35G U43C G55U U66C U72A C81U], with 0; and UGACAGGGGGCCACAGCAGAUGCGUUCACGUCGCAGCCCCCGUCAGAUUCUGGUGAAUCUGCGAAUUCUGCUGUAUAUCUC [A2G A21U U41C], with 0.18.
Then UGACAGGGGGCCACAGCAGAAGCGUUCACGUCGCAGCCCCUGUCAGAUUCUGGUGAAUCUGCGAGUUCUGCUGUAUAUCAC [A2G A65G U80A], with 0.25.
As for UGACAGGGGGCCACAGCAGAAGCGUUCACGUCGCUGCCCCUGCCAGAUUCUGGUGAAUCUGCGAAUUCUGCUGUAUAUCUC [A2G A35U U43C], the self-cleavage turned out to be 0.26.
As for UGACAGGGGGCGGCAGCAGAAGCGUUCACGUCGCUGCCCCUGUCAGAUUCUGGUAAAUCUGCGAAUUCCGCUGUAUAUCUC [A2G C12G A13G A35U G55A U69C], the figure is 0.12; as for UGACAGGGGGCCACAGCAGAAGCGUUCACGUCGCAGCCCCUGUCCGAUUCUGGUGAAUCUGCGAAUUCCGCUAUAUAUCUC [A2G A45C U69C G73A], 0.26.
As for UGACAGGGGGCCACAGCAGAAGCGUUCACGUCGCAGCCCCUGUCCGAUUCUGGUGAAUCUGCGAAUCCUGCUGUAUAUCUC [A2G A45C U67C], the figure is 0.17; as for UGACAGGGGGCUACUGCAGAAGCGUUCACGUCGCAGCCCCAGUCAGAUUCUGGCGAAUCUGCGAAUUCUGCUGUAUAUCUC [A2G C12U A15U U41A U54C], 0.09.
Then UGACAGGGGGCCACAGCAGAAGCGUUCACGUCGCAGCCCCUGUCAGAUUCUGGUGGAUCUGCGAAUUCCGCUGUAUAUCUC [A2G A56G U69C], with 0.24.
UGAUAGGGGGCCACAGCAGAAGCGCUCACGUCGCAGCCCCUGUCAGAUUCUGGUGAAUCUGCGAAUUCUGCCGUAUAUCUC [A2G C4U U25C U72C]: the self-cleavage was 0.66.
Then UGACAGGGGGCCACAGCAGAAGCGUUCACGUCGCAGCCCCUGUCAGAUUCUGGUGAAUCUGCGGAUUCUCCUGUAUAUCUC [A2G A64G G70C], with 0.23; and UGACAGGGGGCCACAGCAGAAGCGUUCGCGUCGCGGCCCCAGUCAGAUUCUGGUGAAUCUGCGAAUUCUGCUGUAUAACUC [A2G A28G A35G U41A U78A], with 0.08; and UGACAGGGGGCCACAGCAGAAGCGUUCACGUCGCAGCCCCUGUCAGGUCCUGGUGAAUCUGCGAAUUCUGCUGUAUAUCUC [A2G A47G U49C], with 0.15.
In the case of UGACAGGGGGGCACUGCAGAAGCGUUCACGUCGCAGCCCCUGUCAGACUCUGGUGGAUCUGCGAAUUCUGCAGUAUAUCUC [A2G C11G A15U U48C A56G U72A], the self-cleavage came to 0.05.
As for UGACAGGGGGCCACAGCAGAAGCGUUCACGUCGCAGCCCCUGUCAGAUUCUGGUGUAUCUGCGAAUUCUGCUGUAUAUCCC [A2G A56U U80C], the figure is 0.3.
Then UGACAGGGGGCCAUAGCUGAAGCGUUCACGUCGCAGCCCAUGUCAGAUUCCGGUGAAUCUGCGAGUUCUGCUGUAUAUCUC [A2G C14U A18U C40A U51C A65G], with 0.03; and UGAUAGGGGGCCACAGCAGAAGCGUGCACGUCGCAGCCCCUGUCAGAUUCUGGUGAAUCUGCGAAUUCUGCUGUAUAACUC [A2G C4U U26G U78A], with 0.22; and UGACAGGGGGCCACAGCAGAAGCGUUCACGUCGCUGCCCCUGUCAGAAUCUGGUGGAUCUGCGAAUUCUGCUGUAUAUCUC [A2G A35U U48A A56G], with 0.56.
Then UGACAGGGGGCCACAGCAGAAGCGUUCACGUCGCAGCCCCUGUCAGAUUCUGGUGAGUCUGCGAAUGCUGCUGUAUAUCUC [A2G A57G U67G], with 0.16; and UGACAGGGGGGCACAGCAGAAGCGUUCACGUCGCAGCCCCUGUCAGAUUCUGGCGAAUCUGCGAAUUCUGCUGUUUAUCUC [A2G C11G U54C A75U], with 0.4; and UGACAGGGGGCCACAGCAGAAGCGUUCGCGUCGCAGGCCCAGUCAGAUUCUGGUGAAUCUGCGAAUUCUGCUGUAUAUCCC [A2G A28G C37G U41A U80C], with 0.32.
UGAUAGGGGGCCACAGCAGAGGCGUUCACGUCGCAGCCCCUGUCAGAUUCUGGUGAAUCUGCGAAUUCUGUUGUAUAUCUC [A2G C4U A21G C71U]: the self-cleavage came out at 0.29.
Then UGACAGGGGGCCACAGCAGAAGCGUUCUCGUCGCAGCCCCUGUCAGACUCUGGUGGAUCUGCGAAUUCUGCUGUAUAUCUC [A2G A28U U48C A56G], with 0.13; and UGACAGGGGGCCACAGCAGAAGCGUUCACGUCGCAGCCCCUGUCAGAUUCUGGUGAAUCUGCGGGUACUGCUGUAUAUCUC [A2G A64G A65G U67A], with 0.29; and UGACAGGGGGCCACAGCAGAAGCGUUCUCGUCGCAGCCCCUGUCAGAUUCUGGCGAAUCUGCGAAUUCUGCUGUUCAUCUC [A2G A28U U54C A75U U76C], with 0.45.
